Test results from publication PMC4324299, “Characterization of interactions between inclusion membrane proteins from Chlamydia trachomatis” (Frontiers in Cellular and Infection Microbiology, 2015).
Results are given in words; binding and its absence hold for the method and conditions named. Some results given as binding are weak or reduced against the parent protein; the word gives no strength.

By UniProt entry, the sequences of proteins in these tests, tags left out.
UniProt O84008: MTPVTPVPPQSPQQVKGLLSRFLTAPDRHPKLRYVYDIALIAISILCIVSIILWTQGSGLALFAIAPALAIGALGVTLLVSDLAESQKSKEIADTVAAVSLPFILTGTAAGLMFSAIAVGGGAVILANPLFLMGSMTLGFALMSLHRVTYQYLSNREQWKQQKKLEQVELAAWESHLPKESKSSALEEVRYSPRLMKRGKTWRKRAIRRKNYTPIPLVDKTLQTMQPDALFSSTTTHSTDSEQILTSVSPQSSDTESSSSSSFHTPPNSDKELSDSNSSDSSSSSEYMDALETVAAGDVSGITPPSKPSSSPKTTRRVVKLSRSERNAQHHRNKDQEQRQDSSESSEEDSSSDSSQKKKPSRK
UniProt P0DJI5: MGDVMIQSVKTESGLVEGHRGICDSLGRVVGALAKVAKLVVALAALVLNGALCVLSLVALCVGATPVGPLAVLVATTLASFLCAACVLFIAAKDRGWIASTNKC
UniProt P0DJI4: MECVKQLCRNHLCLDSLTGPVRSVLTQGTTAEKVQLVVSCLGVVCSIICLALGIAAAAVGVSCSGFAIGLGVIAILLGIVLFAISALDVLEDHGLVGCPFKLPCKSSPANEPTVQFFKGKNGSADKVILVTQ
UniProt P0DJI3: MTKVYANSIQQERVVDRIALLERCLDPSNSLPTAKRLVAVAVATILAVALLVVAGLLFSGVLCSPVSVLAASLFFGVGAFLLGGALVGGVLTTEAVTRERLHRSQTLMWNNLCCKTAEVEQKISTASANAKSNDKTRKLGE
UniProt P0DPS6: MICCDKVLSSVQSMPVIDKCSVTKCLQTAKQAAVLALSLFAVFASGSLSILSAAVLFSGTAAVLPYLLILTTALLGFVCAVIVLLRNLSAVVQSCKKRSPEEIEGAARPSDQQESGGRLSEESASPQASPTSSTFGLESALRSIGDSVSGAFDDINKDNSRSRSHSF

Columns and labels:
[1] = biological target: Ct005 (Chlamydia trachomatis (serovar D/UW-3/CX or L2)) (UniProt O84008); assay: two-hybrid
[2] = biological target: IncF (Ct117) (Chlamydia trachomatis (serovar D/UW-3/CX or L2)) (UniProt P0DJI5); assay: two-hybrid; BACTH screen among a subset of 20 Inc proteins in E. coli DHT1: a pST25-inc bait with a pool of the pUT18C-inc plasmids, blue colonies sequenced; and pairwise co-transformations with β-galactosidase of eight colonies; interaction = activity at least 5 times the negative control
[3] = biological target: Ct005 (Chlamydia trachomatis (serovar D/UW-3/CX or L2)) (UniProt O84008); assay: as above
[4] = biological target: IncE (Ct116) (Chlamydia trachomatis (serovar D/UW-3/CX or L2)) (UniProt P0DJI4); assay: as above
[5] = biological target: IncF (Ct117) (Chlamydia trachomatis (serovar D/UW-3/CX or L2)) (UniProt P0DJI5); assay: two-hybrid
[6] = biological target: IncD (Ct115) (Chlamydia trachomatis (serovar D/UW-3/CX or L2)) (UniProt P0DJI3); assay: two-hybrid
[7] = biological target: IncD (Ct115) (Chlamydia trachomatis (serovar D/UW-3/CX or L2)) (UniProt P0DJI3); assay: two-hybrid; BACTH screen among a subset of 20 Inc proteins in E. coli DHT1: a pST25-inc bait with a pool of the pUT18C-inc plasmids, blue colonies sequenced; and pairwise co-transformations with β-galactosidase of eight colonies; interaction = activity at least 5 times the negative control
[8] = biological target: IncG (Ct118) (Chlamydia trachomatis (serovar D/UW-3/CX or L2)) (UniProt P0DPS6); assay: as above

| Substance | binding [1] | binding [2] | binding [3] | binding [4] | binding [5] | binding [6] | binding [7] | binding [8] |
| --- | --- | --- | --- | --- | --- | --- | --- | --- |
| Ct005 (from UniProt O84008 1-363) | binds | binds | binds | no binding | – | – | – | – |
| IncE (Ct116) (from UniProt P0DJI4 1-132) | – | – | – | no binding | – | – | – | – |
| IncF (Ct117) (from UniProt P0DJI5 1-104) | – | binds | binds | no binding | binds | – | – | – |
| IncG (Ct118) (from UniProt P0DPS6 1-167) | – | binds | – | no binding | – | – | – | – |
| IncD (Ct115) (from UniProt P0DJI3 1-141) | – | binds | – | no binding | – | binds | binds | binds |
